This note sets out measurements from paper PMC4336329 (PLoS ONE, 2015).

In all, about 310,000 compounds went through this assay and about 2,200 (0.71%) showed an effect of 50% or more. Effects have a minus sign here. This is one part of the list.

The target in the assay is human ether-à-go-go-related gene (hERG) potassium channel (human, UniProt Q12809). Nature of the assay: primary screen, population patch clamp on CHO cells stably expressing hERG.
Sequence of human ether-à-go-go-related gene (hERG) potassium channel (Q12809 whole entry, looked up): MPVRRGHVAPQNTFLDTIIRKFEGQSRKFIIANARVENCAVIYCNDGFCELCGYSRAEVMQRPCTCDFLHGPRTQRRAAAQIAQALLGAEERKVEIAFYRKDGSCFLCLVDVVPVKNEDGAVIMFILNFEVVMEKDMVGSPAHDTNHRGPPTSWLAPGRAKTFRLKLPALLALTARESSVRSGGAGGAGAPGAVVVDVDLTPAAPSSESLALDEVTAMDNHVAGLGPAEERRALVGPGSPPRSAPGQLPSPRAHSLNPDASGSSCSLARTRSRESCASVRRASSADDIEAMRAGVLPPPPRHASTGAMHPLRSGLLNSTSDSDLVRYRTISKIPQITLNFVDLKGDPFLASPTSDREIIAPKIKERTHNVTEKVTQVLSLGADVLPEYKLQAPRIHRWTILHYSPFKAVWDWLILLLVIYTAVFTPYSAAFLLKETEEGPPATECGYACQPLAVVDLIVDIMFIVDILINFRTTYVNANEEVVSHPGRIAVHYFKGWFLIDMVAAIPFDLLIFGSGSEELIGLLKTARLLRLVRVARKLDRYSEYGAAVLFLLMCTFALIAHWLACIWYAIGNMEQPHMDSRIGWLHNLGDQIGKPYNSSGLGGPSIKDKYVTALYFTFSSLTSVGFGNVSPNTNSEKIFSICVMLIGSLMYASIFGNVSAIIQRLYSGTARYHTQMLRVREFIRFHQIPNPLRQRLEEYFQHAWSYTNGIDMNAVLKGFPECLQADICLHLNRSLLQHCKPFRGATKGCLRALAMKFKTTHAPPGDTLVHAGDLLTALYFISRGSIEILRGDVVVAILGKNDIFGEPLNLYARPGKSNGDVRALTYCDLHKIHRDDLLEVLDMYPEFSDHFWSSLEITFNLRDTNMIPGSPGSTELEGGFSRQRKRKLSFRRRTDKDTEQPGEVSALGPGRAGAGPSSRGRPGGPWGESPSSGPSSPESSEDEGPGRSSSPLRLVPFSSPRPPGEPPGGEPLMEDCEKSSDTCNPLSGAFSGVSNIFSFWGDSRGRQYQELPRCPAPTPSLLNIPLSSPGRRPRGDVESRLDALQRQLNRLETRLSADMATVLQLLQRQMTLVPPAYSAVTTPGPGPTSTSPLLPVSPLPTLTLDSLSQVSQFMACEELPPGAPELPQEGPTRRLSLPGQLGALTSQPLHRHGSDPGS
On to `O=C(COc1ccc2ccc(=O)oc2c1)Nc1ccc(CCO)cc1`, for which the “hERG current change (%, negative = inhibition) at 1uM” value was 9%. To `Cc1ccc(C(=O)NNC2=NCCC2)cc1` belongs 3.85%; to `COc1cc(C)nc(NC(=S)N(C)C(=O)c2ccccc2)n1`, 3.27%.

For the molecule `COCc1nnc(SCC(=O)Nc2cccc(Cl)c2C)n1-c1ccccc1`, the “hERG current change (%, negative = inhibition) at 1uM” value was -11%. Turning to `COc1ccc(-c2nc(CN3CCC(C(=O)NCC4CCCO4)CC3)c(C)o2)cc1OC` (stereo not shown), the “hERG current change (%, negative = inhibition) at 1uM” value is recorded as 13.5%. In the case of `O=C(NCCS(=O)(=O)N1CCN(c2ccccc2)CC1)c1cccs1`, the “hERG current change (%, negative = inhibition) at 1uM” value was found to be 8.28%. With `COc1ccc(-c2cc(=O)c3c(O)cc(OC4OC(COC5OC(C)C(O)C(O)C5O)C(O)C(O)C4O)cc3o2)cc1O` (stereo not shown), the “hERG current change (%, negative = inhibition) at 1uM” value is 10.9%.

On to `CNS(=O)(=O)c1ccc(C)cc1`, for which the “hERG current change (%, negative = inhibition) at 1uM” value was determined as 6.32%. `COc1cc(NS(=O)(=O)c2ccc(NC(=O)c3cccs3)cc2)nc(OC)n1`: the “hERG current change (%, negative = inhibition) at 1uM” value was 13.9%.

For `COc1cc(O)c(C(CC(=O)N2CCN(c3ccccc3)CC2)c2ccc(N(C)C)cc2)c(OC)c1` (stereo not shown), the “hERG current change (%, negative = inhibition) at 1uM” value came to 16.2%. `O=C(O)c1ccccc1N=Nc1c(O)[nH]c2ccc([N+](=O)[O-])cc12`: the “hERG current change (%, negative = inhibition) at 1uM” value is on record as 5.1%. Take `CCOc1ccc(NC(=S)NC(=O)c2cncc(Br)c2)cc1`: the “hERG current change (%, negative = inhibition) at 1uM” value is on record as 12.7%. `CCOC(=O)N1CCN(C(=O)CSc2ccc(-c3cccc(OC)c3)nn2)CC1`: the “hERG current change (%, negative = inhibition) at 1uM” value is -4.47%.

With `OC(COc1ccc2cc(Br)ccc2c1)CN1CCOCC1` (stereo not shown), the “hERG current change (%, negative = inhibition) at 1uM” value is reported as -2.4%. Turning to `NC(=O)c1c(NC(=O)CSc2nnc(Cc3ccccc3)n2Cc2ccco2)sc2c1CCC2`, the “hERG current change (%, negative = inhibition) at 1uM” value was 9.05%. To `CCOc1ccc(S(=O)(=O)N(CC)CC)cc1NC(=O)CSCc1c(C)noc1C` belongs -17.7%; to `O=C(Nc1ccc2nc(-c3cccnc3)[nH]c2c1)c1ccco1`, 12.7%; to `Cn1cc(S(=O)(=O)NC2CCCCC2)c(=O)n(C)c1=O`, 4.22%. Turning to `COc1ccc(C2NCc3ccc4c(c3-n3cccc32)OCO4)cc1O.Cl` (stereo not shown), the “hERG current change (%, negative = inhibition) at 1uM” value amounted to 4.14%. Take `COc1ccc(Br)cc1-c1nc2c(c(=O)[nH]c(=O)n2Cc2ccccc2)n1C`: the “hERG current change (%, negative = inhibition) at 1uM” value is listed as 5.02%. For `Cc1ccc(OCCN2CCN(C)CC2)c([N+](=O)[O-])c1.O=C(O)C(=O)O`, the “hERG current change (%, negative = inhibition) at 1uM” value amounted to 8.56%. On to `c1ccc2sc(NC3=NCN(CCN4CCOCC4)CN3)nc2c1`, for which the “hERG current change (%, negative = inhibition) at 1uM” value is 9.82%. The figure for `Cn1c(CNC(=O)c2ccccc2F)nnc1SCc1ccc(F)cc1` is 2.95%; for `CC(=O)c1nn(-c2cccc(Br)c2)cc1C(=O)c1ccccc1` it is 22%.

As for `CCN(CC(=O)NC1CCS(=O)(=O)C1)c1ccc([N+](=O)[O-])cc1C#N` (stereo not shown), the “hERG current change (%, negative = inhibition) at 1uM” value came out at 0.543%.

On to `Cc1nnc2n(c1=O)N=C(c1ccc(Cl)cc1)CS2`, for which the “hERG current change (%, negative = inhibition) at 1uM” value is 12.3%. Turning to `CSc1nc2ccccc2n1CC(=O)Nc1ccc(C)c(C)c1`, the “hERG current change (%, negative = inhibition) at 1uM” value is listed as 18.9%. For `CC[C@@H]1[C@H]2CCCC(=O)N3CC[C@@H](C[C@H]1O)[C@@H]23`, the “hERG current change (%, negative = inhibition) at 1uM” value was 8.77%. For the molecule `Cc1ccc2nc(NCCO)nc(-c3ccccc3)c2c1`, the “hERG current change (%, negative = inhibition) at 1uM” value was 1.36%. For `O=C(Nc1ccc2c(c1)C(=O)NC2=O)c1ccccc1Cl`, the “hERG current change (%, negative = inhibition) at 1uM” value turned out to be 6.33%.

With `O=C(Nc1ccc([N+](=O)[O-])cc1)Nn1cnnc1`, the “hERG current change (%, negative = inhibition) at 1uM” value is on record as 9.51%.

In the case of `COc1nccnc1NS(=O)(=O)c1ccc(NCc2ccccc2O)cc1`, the “hERG current change (%, negative = inhibition) at 1uM” value is 14.3%. For `C[C@@]12C(=O)N(CCO)CC(=O)N1[C@H](/C=C/c1ccccc1)[C@@H]1C(=O)N(c3ccccc3)C(=O)[C@@H]12`, the “hERG current change (%, negative = inhibition) at 1uM” value was found to be 1.88%. With `O=C(Nc1ccc(N2CCOCC2)cc1)c1cc2c(s1)CCCCC2`, the “hERG current change (%, negative = inhibition) at 1uM” value was determined as 10%.

With `C/C(=N\Nc1ccc([N+](=O)[O-])cc1[N+](=O)[O-])C(C)C(C)C` (stereo not shown), the “hERG current change (%, negative = inhibition) at 1uM” value was -3.16%. Consider `Cc1cccc(CN2CCN(Cc3cnn(-c4ccccc4F)c3)CC2CCO)n1` (stereo not shown), for which the “hERG current change (%, negative = inhibition) at 1uM” value was determined as 2.62%. For `Cc1ccnc2nc(C(=O)Nc3ccc(S(=O)(=O)N4CCCC4)cc3)nn12`, the “hERG current change (%, negative = inhibition) at 1uM” value is 9.87%. The figure for `Cc1noc(C)c1S(=O)(=O)Nc1ccc(C(=O)NC2CCCCCC2)cc1` is 18.2%.

On to `Cc1c(C#N)c(O)[nH]c(=O)c1N=Nc1ccc(Cl)c(C(=O)O)c1`, for which the “hERG current change (%, negative = inhibition) at 1uM” value stood at 9.09%. To `CCCCn1c(N)c(N(CC(C)C)C(=O)c2ccncc2)c(=O)[nH]c1=O` belongs 21.1%; to `O=C(c1ccc(Cl)s1)N1CCN(c2nc3ccccc3s2)CC1`, -8.14%. As for `Cn1c(-c2cccc(OCc3ccccc3)c2)nc2c1c(=O)[nH]c(=O)n2Cc1ccccc1`, the “hERG current change (%, negative = inhibition) at 1uM” value came to 8.31%. With `N#CCC(=O)Nc1ccc(C(=O)NCC2(N3CCOCC3)CCCCC2)cc1`, the “hERG current change (%, negative = inhibition) at 1uM” value was determined as 10.9%.
